The results in this text go back to publication PMC4549061.

Sequences of proteins named here, by UniProt entry; tags and fusion partners are left off. A change or cut given only in a name is not applied to a line headed by its entry. Residues count along the entry.
UniProt Q04735: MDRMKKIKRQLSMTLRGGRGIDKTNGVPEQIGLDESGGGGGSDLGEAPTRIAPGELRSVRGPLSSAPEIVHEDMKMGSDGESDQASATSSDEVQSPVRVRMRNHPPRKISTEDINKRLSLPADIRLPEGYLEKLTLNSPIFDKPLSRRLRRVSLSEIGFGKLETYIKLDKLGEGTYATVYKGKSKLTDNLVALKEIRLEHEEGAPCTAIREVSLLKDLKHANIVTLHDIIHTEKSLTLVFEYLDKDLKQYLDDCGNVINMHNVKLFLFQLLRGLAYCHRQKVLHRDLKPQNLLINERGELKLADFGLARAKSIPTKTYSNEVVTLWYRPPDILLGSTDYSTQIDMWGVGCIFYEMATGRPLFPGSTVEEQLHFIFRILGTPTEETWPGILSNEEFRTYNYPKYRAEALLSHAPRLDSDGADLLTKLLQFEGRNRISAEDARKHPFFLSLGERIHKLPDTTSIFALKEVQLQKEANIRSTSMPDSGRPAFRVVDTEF
CDK16-Flag protein kinase domain alone: residues 165-446 of Q04735
UniProt D3YUJ3: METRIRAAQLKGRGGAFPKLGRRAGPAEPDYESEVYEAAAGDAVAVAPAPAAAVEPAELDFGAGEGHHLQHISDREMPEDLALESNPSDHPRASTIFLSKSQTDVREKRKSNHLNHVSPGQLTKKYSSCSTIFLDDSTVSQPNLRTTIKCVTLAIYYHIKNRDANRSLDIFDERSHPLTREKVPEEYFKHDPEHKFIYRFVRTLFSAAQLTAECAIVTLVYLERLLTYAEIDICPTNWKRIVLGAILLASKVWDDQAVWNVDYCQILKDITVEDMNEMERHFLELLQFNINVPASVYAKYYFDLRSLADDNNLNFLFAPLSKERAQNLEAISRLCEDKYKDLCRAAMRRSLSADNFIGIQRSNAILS

Where two headings read alike, the source gives them in different places. Results are given in words; binding and its absence hold for the method and conditions named. In cells and extracts the contact can be indirect. Some entries that bind do so weakly or less than the wild type. For some of these results: Tags and fused reporters may be left off the sequences shown.

In assay [1] the target is cyclin-dependent kinase 16 (CDK16), endogenous in mouse testis (mouse (endogenous in testis)) (UniProt Q04735). Description: co-IP; mouse testicular lysate in IP buffer (150mM NaCl, 50mM Tris, 1mM EGTA, 0.2% NP-40); CDK16 immunoprecipitated with CDK16 antibody (1:40), 4°C, 2 hours; western blot for CCNYL1. For orientation: A western blot detects proteins with antibodies after separation by electrophoresis.

In assay [2] the target is CDK16-Flag S146A mutant (mouse) (UniProt Q04735). Briefly: co-IP; HEK293T cells co-transfected with HA- and Flag-tagged plasmids; lysed in IP buffer (150mM NaCl, 50mM Tris, 1mM EGTA, 0.2% NP-40); anti-HA or anti-Flag conjugated agarose, 4°C, 2 hours; western blot.
Assay [3] deals with K194R CDK16-Flag mutant (kinase dead) (mouse) (UniProt Q04735). Described as above.
In assay [4] the target is CDK16-Flag S153A mutant (mouse) (UniProt Q04735). The description is as above.
Assay [5] concerns the target CDK16-Flag S78A mutant (mouse) (UniProt Q04735). The assay is described as above.
Assay [6] has as its target CDK16-Flag S36A mutant (mouse) (UniProt Q04735). The assay is described as above.
Assay [7] deals with S119A CDK16-Flag mutant (mouse) (UniProt Q04735). The assay is described as above.
Assay [8] addresses CDK16-Flag S110A mutant (mouse) (UniProt Q04735). Described as above.
Assay [9] addresses CDK16-Flag (C-terminal Flag-tagged cyclin-dependent kinase 16) (mouse) (UniProt Q04735). The assay is described as above.
Assay [10] addresses CDK16-Flag S480D mutant (mouse) (UniProt Q04735). Described as above.
Assay [11] concerns the target CDK16-Flag S110D mutant (mouse) (UniProt Q04735). Described as above.
For assay [12], the target named is CDK16-Flag S36D mutant (mouse) (UniProt Q04735). The assay is described as above.
Assay [13] addresses CDK16-Flag S146D mutant (mouse) (UniProt Q04735). The assay is described as above.
The target of assay [14] is CDK16-Flag T175A mutant (mouse) (UniProt Q04735). Described as above.
Assay [15] concerns the target CDK16-Flag T175D mutant (mouse) (UniProt Q04735). The assay is described as above.
In assay [16] the target is CDK16-Flag protein kinase domain alone (mouse) (UniProt Q04735). The assay is described as above.
In assay [17] the target is CDK16-Flag S153D mutant (mouse) (UniProt Q04735). Described as above.
The target of assay [18] is CDK16-Flag S480A mutant (mouse) (UniProt Q04735). Described as above.
Assay [19] addresses CDK16-Flag (C-terminal Flag-tagged cyclin-dependent kinase 16) (mouse) (UniProt Q04735). Described as above. The source holds these as a separate data set.

Take “Cyclin Y-like 1 (CCNYL1), endogenous in mouse testis (from UniProt D3YUJ3 1-367)”: the binding result in assay [1] is reported as “binds”.
Take “CCNYL1-HA (N-terminal HA-tagged Cyclin Y-like 1) (from UniProt D3YUJ3 1-367)”: the binding entry is given as “binds weakly” in assay [2]; “binds” in assay [3]; “binds” in assay [4]; “binds” in assay [5]; “binds” in assay [6]; “binds” in [7]. Also, the binding entry in assay [8] was “binds”; in [9], “binds”; in [10] it was “binds”; in assay [11] it was “binds”; in [12], “binds”; in assay [13], “binds weakly”. Also, the binding result in assay [14] is “binds”; in assay [15], “binds”; in assay [16], “no binding”; in assay [17], “binds”; in assay [18], “binds”.

B1: CCNY-HA (HA-tagged Cyclin Y) (protein, UniProt Q8BGU5 1-341)
chain: MGNTTSCCVSSSPKLRRNAHSRLESYRPDTDLSREDTGCNLQHISDRENIDDLNMEFNPSDHPRASTIFLSKSQTDVREKRKSLFINHHPPGQTSRKYSSCSTIFLDDSTVSQPNLKYTIKCVALAIYYHIKNRDPDGRMLLDIFDENLHPLSKSEVPPDYDKHNPEQKQIYRFVRTLFSAAQLTAECAIVTLVYLERLLTYAEIDICPANWKRIVLGAILLASKVWDDQAVWNVDYCQILKDITVEDMNELERQFLELLQFNINVPSSVYAKYYFDLRSLAEANNLSFPLEPLSRERAHKLEAISRLCEDKYKDLRKPMRKRSASADNLILPRWSPAIIS
Regarding B1, the binding entry in [19] is on record as “binds”.
